Molecules are shown by their SMILES.

Series [1] is described as follows: Crossover study Part 1: PK of LYT-100 850 mg BID vs pirfenidone 801 mg TID. It counts as in vivo, human. As to conditions: fed. From the text: Over encapsulation was utilized to match TID dosing for pirfenidone and to match the number of LYT-100 capsules administered for each dose. Thus, during LYT-100 treatment, the mid-day dose was placebo.
Approximately forty older healthy female and male adult subjects (1:1 target ratio) were randomized into 1 of 2 cohorts:Cohort 1 or Cohort 2, N=20 subjects per cohort; minimum of 8 per sex per cohort. Subjects in each cohort were randomized to treatment sequence as follows: Sequence A: Pirfenidone to LYT-100; Sequence B: LYT-100 to pirfenidone. Dosing is outlined in Table 1. A graphical illustration of the study design for Part 1 is provided as FIG. 2.
(§1) The study is blinded with a placebo mid-day dose for LYT-100 to match TID pirfenidone dosing. There was a single AM fasting dose on Day 4 for both drugs. There was a 6-day wash-out period between drug cross-over.
Blood samples for PK were collected for Cohorts 1 and 2 at specified times during both periods, as follows: • Days 1 & 11:0 (pre-morning dose) • Days 2 & 12: no sampling. • Days 3 & 13:0 (pre-morning dose), and 1, 2, 3, 4, 6 (pre-mid-day dose), 7, 8, 9, 10, 12 (pre-evening dose), 13, 14, 15, 16, and 17 hours post-morning dose • Days 4 & 14:0 (pre-morning dose), and 1, 2, 3, 4, 6 (post-dose), […]
Urine samples for analysis of excretion in urine were collected, separated by specified time interval, and analyzed. […]

The subject of the next series is older, healthy subjects. Briefly: Crossover study Part 1: safety and tolerability (TEAEs). The format is in vivo, human. As to conditions: for serious adverse events: LYT-100 850 mg BID / pirfenidone 801 mg TID; for incidence of gastrointestinal AEs / incidence of nervous system AEs: LYT-100 850 mg BID / pirfenidone 801 mg TID (FIG. 6B).
A short description of series [2]: PK modelling / bioequivalence simulation of LYT-100 doses vs pirfenidone 801 mg TID (pooled data). Details: species or system human. The method, then:
PK modeling data incorporated the results of various MAD PK studies to reduce variability inherent in multiple studies of small sample size.
as §1
Using the foregoing crossover data, a further simulation was performed. […] These ratios were then assessed using the same process described in Chow (Design and Analysis of Bioavailability and Bioequivalence Studies; Chapman & Hall/CRC Biostatistics Series, Chapman; Hall/CRC 2008) and the CDER (Guidance for Industry Statistical Approaches to Establishing Bioequivalence Center for Drug Evaluation and Research [CDER], FDA, 2001).
Bioequivalence simulations were performed for AUC24ss across this dosing study and three prior dosing studies. […] The results of the simulations across this study and three prior studies is provided in tabular form in FIG. 18.

The subject of series [3] is patients with Idiopathic Pulmonary Fibrosis (IPF). Briefly: IPF trial Part A (26-week double-blind): efficacy, FVC and FVCpp, time to progression. It counts as in vivo, human. The method, then: The primary objective was to determine the dose(s) to carry into Phase 3. […] Patients were randomized to one of the four treatments in a 1:1:1:1 ratio and stratified based on prior exposure to nintedanib (<6 months) versus nintedanib-naïve patients. Patients who completed the Double-blind Treatment Period (Part A) were offered participation in the Long-term Extension (Part B). […] For patients who participated in Part B, the follow-up was conducted at the end of Part B. A graphical illustration of an embodiment of the trial design is provided as FIG. 24B.
Doses were adjusted according to safety and tolerability to avoid toxicity.
Note that, for all treatment groups, the first 7 days of treatment, one capsule was taken TID., Day 8 through Day 14, two capsules TID., and Day 15 forward, 3 capsules TID.
Weekly home FVC was assessed with an individual spirometer, which was supplied to each patient. The site used its own equipment for in-clinic FVC assessments. Spirometry measurements were performed according to the American Thoracic Society/European Respiratory Society (“An Official American Thoracic Society and European Respiratory Society Technical Statement Technical Statement” Am J Respir Crit Care Med. 2019; 200(8):e71-e83) and the study specific Pulmonary Function Manual, at timepoints specified in the Schedule of Assessments. Spirometry was conducted while the patient was in a seated position. The test was done in order to achieve three acceptable FVC measurements (three curves to be provided), and the best result selected according to the guidelines. The best of three efforts was defined as the highest FVC, obtained on any of the three blows meeting the ATS/ERS/JRS/ALAT 2019 criteria (Graham et al, 2019) with preferably a maximum of eight attempts.
Pulmonary function was measured in a standardized manner and results transmitted electronically during the visit immediately after performing the spirometry and evaluated by a central reader. In case the acceptability and repeatability criteria as specified by ATS/ERS/JRS/ALAT guidelines were not met, a repeat spirometry was performed during the same visit.
The primary efficacy endpoint was the rate of decline in FVC mL over 26 weeks. In addition, decline in FVC % predicted from baseline to Week 26 and by >10% and >5% was assessed.
The secondary endpoint was comparison of FVC % predicted change from baseline to Week 26.
The following parameters were measured or calculated as part of the spirometry assessment: • FVC (mL) and FVC % predicted (FVCpp) • FEV1 (mL) and percent predicted forced expiratory volume in 1 second (FEV1% p) • FEV1/FVC ratio • Forced expiratory flow between 25% and 75% of exhaled volume (FEF25-75) The ‘2012 Global Lung Function Initiative Equations’ was used to calculate the predicted values (Quanjer et al, “Multi-ethnic reference values for spirometry for the 3-95 year age range: the global lung function 2012 equations: Report of the Global Lung Function Initiative (GLI), ERS Task Force to establish improved Lung Function Reference Values.,” Eur Respir J, vol. 40(6), pp. 1324-1343, 2012). […]

Setting [4] is: LYT-100 825 mg BID (1650 mg daily), extrapolated (FIG. 5).
Setting [5] is: 26 weeks, pirfenidone 801 mg TID.

In the case of `[2H]C([2H])([2H])c1ccc(=O)n(-c2ccccc2)c1` [LYT-100, 5-(methyl-d3)-1-phenylpyridin-2-(1H)-one], in series [1], the “steady-state AUC as % of pirfenidone 801 mg TID” value came out at 102% and the “steady-state Cmax as % of pirfenidone 801 mg TID” value (shortened to “steady-state Cmax as %”) is recorded as 104%. In the series with older, healthy subjects, the serious adverse events entry is given as “no serious adverse events”, the “incidence of gastrointestinal AEs” value is 37.1% and the “incidence of nervous system AEs” value turned out to be 45.7%. The “steady-state Cmax as %” value in series [2] (LYT-100 550 mg TID, extrapolated/predicted (FIG. 4, FIG. 5)) is recorded as 67.4%. Further, in series [2] (setting [4]), the “steady-state Cmax as %” value is on record as 101.1% and the “steady-state exposure (AUC) as % of pirfenidone 801 mg TID” value is on record as 98.5%. In addition, the “predicted Cmax, % higher than Cmax of pirfenidone 801 mg TID” value in series [2] (LYT-100 825 mg TID) was 15%. Moreover, the “steady-state systemic exposure as % of pirfenidone 801 mg TID” value in series [2] (LYT-100 850 mg BID, from earlier PK crossover study) is reported as “about 102%”. Also, the “effect size greater than pirfenidone 801 mg TID (FVC and FVCpp)” value in series [3] (LYT-100 825 mg TID) is “approximately 50%”.
`Cc1ccc(=O)n(-c2ccccc2)c1` [Pirfenidone, pirfenidone, reference compound]: in the series with older, healthy subjects, the serious adverse events result is reported as “no serious adverse events”, the “incidence of gastrointestinal AEs” value was 29.7% and the “incidence of nervous system AEs” value stood at 35.1%. In series [3] (setting [5]), the “FVC, Bayesian Posterior Mean Difference vs. Placebo” value stood at 60.4 mL; the “FVC, Frequentist Adjusted Mean Difference vs. Placebo” value turned out to be 60.9 mL; the “FVCpp, Bayesian Posterior Mean comparison vs. Placebo” value was found to be 1.81; the “FVCpp, Frequentist Adjusted Mean comparison vs. Placebo” value is reported as 1.97. Moreover, in series [3] (setting [5]), the “Treatment effect, FVC, versus placebo” value stood at 54.1% and the “Treatment effect, FVCpp, versus placebo” value turned out to be 57.4%. For the same compound, the “Treatment effect, FVC, versus placebo” value in series [3] (26 weeks, pirfenidone 801 mg TID, listed as pirfenidone) stood at 54.1%. Also, in series [3] (pirfenidone 801 mg TID), the “Cohen's D, FVC” value amounted to 0.27 and the “Cohen's D, FVCpp” value is recorded as 0.29. Also, in series [3] (pirfenidone 801 mg TID, N=61), the “Change from Baseline in FVC over 26 Weeks, Bayesian Posterior Mean (SE)” value was −50.4 (28.33) mL; the “Change from Baseline in FVC over 26 Weeks, Frequentist Adjusted Mean (SE)” value is listed as −51.6 (29.13) mL; the “Change from Baseline in FVCpp over 26 Weeks, Bayesian Posterior Mean (SE)” value was −1.45 (0.89); the “Change from Baseline in FVCpp over 26 Weeks, Frequentist Adjusted Mean (SE)” value is −1.46 (0.881). Further, the “Change from Baseline in FVC over 26 Weeks, Frequentist Adjusted Mean (SE)” value in series [3] (pirfenidone 801 mg TID, N=61, listed as pirfenidone) was -51.6 mL.

(Values after patent US12622899B2 (PureTech LYT 100, Inc., priority 2018, dated 2026).)
